B1: TEV protease; numbered along this chain (parent)
chain: MGESLFKGPRDYNPISSSICHLTNESDGHTTSLYGIGFGPFIITNKHLFRRNNGTLVVQSLHGVFKVKDTTTLQQHLVDGRDMIIIRMPKDFPPFPQKLKFREPQREERICLVTTNFQTKSMSSMVSDTSCTFPSGDGIFWKHWIQTKDGQCGSPLVSTRDGFIVGIHSASNFTNTNNYFTSVPKNFMELLTNQEAQQWVSGWRLNADSVLWGGHKVFMVKPEEPFQPVKEATQL

Variants of B1 are the subject of the experiment. Description: raw area under fraction-flipped curve 0-4 h after induction (AUC4h, not background-subtracted), DNA-recorder readout of cleavage of the substrate (dimensionless); higher = more cleavage of the substrate by the protease variant. To be noted: temperature: 34 °C; time window: 0-4 h after rhamnose induction. The procedure: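 In vivo DNA recorder in E. coli TOP10(DE3) ΔrhaA at 34 °C. Each TEVp single-site mutant (parent TEVp 0) is paired with a single-site variant of the 7-mer TEVs (canonical ENLYFQ|S). The substrate sits between flexible linkers in a Bxb1-sfGFP-TEVs-SsrA fusion, so cleavage stabilises Bxb1 and speeds flipping of a recombination array, read by NGS. The value is the raw area under the fraction-flipped curve over 0-4 h after rhamnose induction (AUC4h), with ≥20 reads per time point. It is not background-subtracted; inactive controls average about 0.047.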

This is one part of the list. The full chains were built here from the parent and the listed change. Values near 0.05 are background.
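Note: Bxb1 expression induced with 0.2% (w/v) L-rhamnose at OD600 near 0.5, cultures sampled hourly, flipped fraction per protease–substrate barcode pair counted by paired-end Illumina sequencing.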

With MGESLFKGPRDYNPISSSICHLTNESDGHVTSLYGIGFGPFIITNKHLFRRNNGTLVVQSLHGVFKVKDTTTLQQHLVDGRDMIIIRMPKDFPPFPQKLKFREPQREERICLVTTNFQTKSMSSMVSDTSCTFPSGDGIFWKHWIQTKDGQCGSPLVSTRDGFIVGIHSASNFTNTNNYFTSVPKNFMELLTNQEAQQWVSGWRLNADSVLWGGHKVFMVKPEEPFQPVKEATQL [T30V], the “area with substrate ENLDFQS” value is 0.116, the “area with substrate ENLEFQS” value came to 0.0575, the “area with substrate ENLFFQS” value is 0.107 and the “area with substrate ENLHFQS” value is 0.0689. Further, the “area with substrate ENLNFQS” value stood at 0.0695, the “area with substrate ENLPFQS” value turned out to be 0.0462, the “area with substrate ENLQFQS” value was 0.0899 and the “area with substrate ENLSFQS” value turned out to be 0.0669.
As to MGESLFKGPRDYNPISSSICHLTNESDGHTTSLYGIGFGPFIITNKHLFRRNNGTLVVQSLHGVFKVKDTTTLQQHLVDGRDMIIIRMPKDFPPFPQKLKFREPQREERICLVTTNFQTKSMSSMVSDTSCTFPSGDGIFWKHWIQTKDGQCGSPLVSTRDGFIVGIHSASNFTNTNNYFTSVPKNFMELLTNQEAQQWVSGWRLNADSVLWGGHKVFMVKPEEPFQEVKEATQL [P228E], the “area with substrate ENLCFQS” value is 0.109, the “area with substrate ENLFFQS” value came out at 0.066, the “area with substrate ENLIFQS” value was found to be 0.0864 and the “area with substrate ENLNFQS” value stood at 0.0917. For the same variant, the “area with substrate ENLTFQS” value came out at 0.0807 and the “area with substrate ENLVFQS” value was 0.0864.
With MGESLFKGPRDYNPISSSICHLTNESDGHTTSLYGIGFGPFIITNKHLFRRNNGTLVVQSLHGVFKVKDTTTLQQHLVDGRDMIIIRMPKDFPPFPQKLKFREPQREERICLVTTNFQTKSMSSMVSDTSCTFPSGDGIFWKHWIQTKDGQCGSPLVSTRDGFIVGIHSASNFTNTNNYFTSVPKNFMELLTNQEAQQWVSGWRLNADSVLWGGHKVFMVKPEEPFQAVKEATQL [P228A], the “area with substrate ENLCFQS” value came out at 0.0669, the “area with substrate ENLDFQS” value was found to be 0.103, the “area with substrate ENLHFQS” value worked out at 0.0788 and the “area with substrate ENLIFQS” value amounted to 0.0869. Besides, the “area with substrate ENLNFQS” value turned out to be 0.0504, the “area with substrate ENLPFQS” value was determined as 0.0691 and the “area with substrate ENLVFQS” value came out at 0.09.
For MGESLFKGPRDYNPISSSICHLTNESDGHTTSLYGIGFGPFIITNKHLFRRNNGTLVVQSLHGVFKVKDTTTLQQHLVDGRDMIIIRMPKDFPPFPQKLKFREPQREERICLVTTNFQTKSMSSMVSDTSCTFPSGDGIFWKHWIQTKDGQCGSPLVSTRDGFIVGIHSASNFTNTNNYFTSVPKNFMELLTNQEAQQWVSGWRLNADSVLWGGHKVFMVKPEEPFQPVKRATQL [E231R], the “area with substrate ENLCFQS” value is 0.0712, the “area with substrate ENLDFQS” value was determined as 0.0774, the “area with substrate ENLFFQS” value was found to be 0.077 and the “area with substrate ENLGFQS” value is 0.0601. The “area with substrate ENLHFQS” value came to 0.0721, the “area with substrate ENLKFQS” value came out at 0.0673, the “area with substrate ENLMFQS” value came to 0.062 and the “area with substrate ENLPFQS” value worked out at 0.0583. The “area with substrate ENLQFQS” value was determined as 0.0834, the “area with substrate ENLRFQS” value was determined as 0.073, the “area with substrate ENLSFQS” value was found to be 0.054 and the “area with substrate ENLWFQS” value was found to be 0.0753.
As to MGESLFKGPRDYNPISSSICHLTNESDGHTTSLYGIGFGPFIITNKHLFRRNNGTLVVQSLHGVFKVKDTTTLQQHLVDGRDMIIIRMPKDFPPFPQKLKFREPQREERICLVTTNFQTKSMSSMVSDTSCTFPSGDGIFWKHWIQTKDGQCGSPLVSTRDGFIVGIHSASNFTNTNNYFTSVPKNFMELLTNQEAQQWVSGWRLNADSVLWGGHKVFMVKPEEPFQPVKPATQL [E231P], the “area with substrate ENLCFQS” value was 0.0885, the “area with substrate ENLDFQS” value stood at 0.0931, the “area with substrate ENLFFQS” value worked out at 0.0895 and the “area with substrate ENLGFQS” value was 0.0664. The “area with substrate ENLKFQS” value came to 0.084, the “area with substrate ENLLFQS” value was determined as 0.0782, the “area with substrate ENLNFQS” value was found to be 0.0729 and the “area with substrate ENLSFQS” value turned out to be 0.0464.
Turning to MGESLFKGPRDYNPISSSICHLTNESDGHTTSLYGIGFGPFIITNKHLFRRNNGTLVEQSLHGVFKVKDTTTLQQHLVDGRDMIIIRMPKDFPPFPQKLKFREPQREERICLVTTNFQTKSMSSMVSDTSCTFPSGDGIFWKHWIQTKDGQCGSPLVSTRDGFIVGIHSASNFTNTNNYFTSVPKNFMELLTNQEAQQWVSGWRLNADSVLWGGHKVFMVKPEEPFQPVKEATQL [V58E], the “area with substrate ENLDFQS” value stood at 0.0509, the “area with substrate ENLHFQS” value amounted to 0.0504, the “area with substrate ENLKFQS” value worked out at 0.0421 and the “area with substrate ENLMFQS” value was found to be 0.0383.
For the variant MGESLFKGPRDYNPISSSICHLTNESDGHTTSLYGIGFGPFIITNKHLFRRNNGHLVVQSLHGVFKVKDTTTLQQHLVDGRDMIIIRMPKDFPPFPQKLKFREPQREERICLVTTNFQTKSMSSMVSDTSCTFPSGDGIFWKHWIQTKDGQCGSPLVSTRDGFIVGIHSASNFTNTNNYFTSVPKNFMELLTNQEAQQWVSGWRLNADSVLWGGHKVFMVKPEEPFQPVKEATQL [T55H], the “area with substrate ENLDFQS” value came out at 0.0599, the “area with substrate ENLEFQS” value worked out at 0.0617, the “area with substrate ENLFFQS” value was determined as 0.0827 and the “area with substrate ENLIFQS” value was found to be 0.0807. Moreover, the “area with substrate ENLLFQS” value is 0.0678, the “area with substrate ENLNFQS” value amounted to 0.0542, the “area with substrate ENLPFQS” value was 0.0434 and the “area with substrate ENLQFQS” value is 0.0339. Moreover, the “area with substrate ENLSFQS” value amounted to 0.0739.
With MGESLFKGPRDYNPISSSICHLTNESDGHTTSLYGIGFGPFIITNKHLFRRNNGKLVVQSLHGVFKVKDTTTLQQHLVDGRDMIIIRMPKDFPPFPQKLKFREPQREERICLVTTNFQTKSMSSMVSDTSCTFPSGDGIFWKHWIQTKDGQCGSPLVSTRDGFIVGIHSASNFTNTNNYFTSVPKNFMELLTNQEAQQWVSGWRLNADSVLWGGHKVFMVKPEEPFQPVKEATQL [T55K], the “area with substrate ENLDFQS” value is 0.0471, the “area with substrate ENLEFQS” value was determined as 0.0478, the “area with substrate ENLFFQS” value was found to be 0.086 and the “area with substrate ENLHFQS” value worked out at 0.0714. For the same variant, the “area with substrate ENLIFQS” value stood at 0.0845, the “area with substrate ENLKFQS” value was 0.0796, the “area with substrate ENLLFQS” value came to 0.0636 and the “area with substrate ENLNFQS” value is 0.0601. Moreover, the “area with substrate ENLPFQS” value stood at 0.0536, the “area with substrate ENLQFQS” value was 0.0586, the “area with substrate ENLRFQS” value amounted to 0.0744 and the “area with substrate ENLSFQS” value is 0.066. The “area with substrate ENLVFQS” value was found to be 0.0681 and the “area with substrate ENLWFQS” value came out at 0.0481.
As to MGESLFKGPRDYNPISSSICHLTNESDGHTTSLYGIGFGPFIITNKHLFRRNNGTLVVQSLHGVFKVKDTTTLQQHLVDGRDMIIIRMPKDFPPFPQKLKFREPQREERICLVTTNFQTKSMSSMVSDTSCTFPSGDGIFWKHWIQTKDGQCGSPLVSTRDGFIVGIHSASNFTNTNNYFTSVPKNFMELLTNQEAQQWVSGWRLNADSVLWGGHKVFMVKPEEPFQPPKEATQL [V229P], the “area with substrate ENLCFQS” value was determined as 0.0635, the “area with substrate ENLDFQS” value was determined as 0.0614, the “area with substrate ENLEFQS” value amounted to 0.0638 and the “area with substrate ENLFFQS” value was 0.0801. For the same variant, the “area with substrate ENLHFQS” value was determined as 0.0839, the “area with substrate ENLIFQS” value came to 0.0724, the “area with substrate ENLKFQS” value worked out at 0.0781 and the “area with substrate ENLLFQS” value was 0.0694. Further, the “area with substrate ENLMFQS” value stood at 0.0839, the “area with substrate ENLNFQS” value was found to be 0.058, the “area with substrate ENLPFQS” value came to 0.0658 and the “area with substrate ENLRFQS” value worked out at 0.0752. Further, the “area with substrate ENLSFQS” value stood at 0.0537, the “area with substrate ENLVFQS” value was determined as 0.106 and the “area with substrate ENLWFQS” value came to 0.0565.
For MGISLFKGPRDYNPISSSICHLTNESDGHTTSLYGIGFGPFIITNKHLFRRNNGTLVVQSLHGVFKVKDTTTLQQHLVDGRDMIIIRMPKDFPPFPQKLKFREPQREERICLVTTNFQTKSMSSMVSDTSCTFPSGDGIFWKHWIQTKDGQCGSPLVSTRDGFIVGIHSASNFTNTNNYFTSVPKNFMELLTNQEAQQWVSGWRLNADSVLWGGHKVFMVKPEEPFQPVKEATQL [E3I], the “area with substrate ENLDFQS” value came out at 0.0582, the “area with substrate ENLEFQS” value is 0.0671, the “area with substrate ENLFFQS” value was determined as 0.105 and the “area with substrate ENLHFQS” value came to 0.0837. The “area with substrate ENLNFQS” value is 0.0671, the “area with substrate ENLPFQS” value is 0.0534, the “area with substrate ENLSFQS” value worked out at 0.0562 and the “area with substrate ENLVFQS” value turned out to be 0.105.
